Over roughly 33,000 sequences, “E-score (dimensionless, -0.5 to 0.5)” has its median near -0.058; the highest 2% begin near 0.35. The list shows a part of the results.
System: MvaT
Test: PBM 8-mer E-score (mean of HK and ME arrays) (E-score (dimensionless, -0.5 to 0.5)); higher = stronger relative binding preference; most listed sequences are background and not binding sites
Outline: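 Reported values are rank-based E-scores, taken as the mean of two universal arrays and parsed with a custom script. Each 8-mer score falls between -0.5 and 0.5. The arrays, ME and HK, were double-stranded 60-mers with a constant 25-mer primer region and a variable 35-mer region covering all 8-mers. They were probed, by an earlier protocol, with full-length P. aeruginosa MvaT carrying an N-terminal glutathione S-transferase fusion.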

Row | Sequence | PBM 8-mer E-score
1 | ACGCACCA | -0.277
2 | ATCAGAGA | -0.03
3 | CATTCTAA | 0.11
4 | AATCACTC | 0.0287
5 | ACCCGCGT | -0.208
6 | GTTTCGCA | -0.0431
7 | CATATACC | 0.166
8 | GGGGCAGA | -0.284
9 | TACTATCA | 0.276
10 | CGATAGTA | 0.18
11 | CGATTGAA | 0.0954
12 | AGGCCACG | -0.195
13 | TAGCGCGA | -0.133
14 | CTGTTTGC | -0.0329
15 | CTACATGA | 0.0935
16 | CTAGGCGA | -0.131
17 | GACTTTAC | 0.0509
18 | ATTGTTCA | 0.149
19 | AGAAGGAA | -0.0232
20 | ACGTGTTA | 0.118
21 | AGCGTTAA | 0.0464
22 | AGATAGCA | 0.0646
23 | ACGGGAAC | -0.19
24 | GAACCAAA | 0.0493
25 | AGCATAAA | 0.0911

Row | Sequence | PBM 8-mer E-score
26 | AGCAGTCG | -0.309
27 | AAAGGTAT | 0.0686
28 | AGCCACCC | -0.274
29 | ACCGAAAT | 0.166
30 | ACGTCCAC | -0.152
31 | TTACGTAA | 0.169
32 | AGCCCTTC | -0.267
33 | CAGCTGCA | -0.132
34 | CAAGTCTC | -0.243
35 | CAACTAAG | 0.0776
36 | GCTGCGCC | -0.0317
37 | GATAAGAA | 0.121
38 | TGAAGACA | 0.125
39 | CGCGCCGA | -0.291
40 | CCCGGCCA | -0.173
41 | AGCCGACT | -0.0783
42 | TCTGGGCA | -0.17
43 | ACAAACAG | 0.231
44 | AGAACGAA | 0.102
45 | CGAGCATC | -0.252
46 | AGCCGTAC | -0.134
47 | CGGACCGC | -0.338
48 | AATCTAGA | 0.132
49 | GGTGCTCA | -0.128
50 | ATCTAACG | 0.0131

Row | Sequence | PBM 8-mer E-score
51 | AGAAGCAC | -0.065
52 | TGCCACCA | -0.112
53 | ACGTTAAG | 0.0601
54 | ACTGATAG | 0.00347
55 | AGTAGGAC | -0.0289
56 | AGATCAGA | 0.0505
57 | CGTTCTCC | -0.188
58 | ACCTAAGC | -0.191
59 | CGGATACC | -0.178
60 | GAGTTGCC | 0.00911
61 | ACAATGCG | 0.0092
62 | ACAGTGTA | 0.155
63 | ACCCTTGA | -0.222
64 | CCCTCGAG | -0.18
65 | ACCTGCAG | -0.0973
66 | AACTGTCA | 0.0842
67 | AGTTGCGA | 0.0918
68 | CATCTCGC | -0.149
69 | AGCTAGTC | -0.187
70 | AGATGACG | -0.14
71 | AGAGCGAC | -0.23
72 | AAAAACGC | 0.0923
73 | CCTATGAG | -0.26
74 | AAGACGTC | -0.00449
75 | AAGATAAT | 0.287

Row | Sequence | PBM 8-mer E-score
76 | GCGGTCAA | -0.0904
77 | CCGCGGTC | -0.286
78 | GCCCTAGC | -0.296
79 | CATATTTA | 0.371
80 | AGTGGGGC | -0.172
81 | GAAGTGCA | 0.121
82 | TCACGTCA | -0.0625
83 | TTTGCAAA | 0.312
84 | GTCTAGCA | -0.19
85 | ACGGTAAA | 0.212
86 | ACTCCAAG | 0.025
87 | TAAAGTGA | 0.202
88 | ACTAGTCT | 0.0237
89 | AATGGAGA | -0.000257
90 | AGGCAAAG | -0.000395
91 | ATTTGTTG | 0.172
92 | GACCCTGC | -0.18
93 | AGGGATAA | 0.112
94 | GCCGCCGA | -0.249
95 | ATTCACGA | -0.0574
96 | CGGTAGGA | -0.0651
97 | CGTGCCGA | -0.293
98 | ATCCTACG | -0.133
99 | AGGGCGTA | -0.126
100 | GCACCGGC | -0.287

Row | Sequence | PBM 8-mer E-score
101 | TACAAGTA | 0.305
102 | CCGGTCGA | -0.179
103 | AAACATAA | 0.371
104 | TAAACATA | 0.312
105 | ATCTACAT | 0.12
106 | GGGTACGA | -0.137
107 | CCCACTTC | -0.135
108 | ATATCCAG | 0.145
109 | ATAATCCA | 0.321
110 | ATAGGGAG | -0.154
111 | GTGCCCAA | -0.071
112 | GAGTATAC | 0.253
113 | CAATACGA | 0.119
114 | ACGGTCTG | -0.101
115 | AATCTGAG | 0.0998
116 | CTTTAAAA | 0.287
117 | GACTAAGC | -0.0918
118 | CAGCTACA | -0.138
119 | GCCTTGCC | -0.279
120 | TATGACAA | 0.13
121 | CAATCAGG | 0.00322
122 | GCCGGCCC | -0.211
123 | GACTGTCC | -0.0796
124 | CAAGCTTA | 0.0267
125 | GGGAAAAC | 0.0894

Row | Sequence | PBM 8-mer E-score
126 | CGTTAATA | 0.31
127 | ATTAAGTA | 0.298
128 | GGGACAAC | -0.0115
129 | CGGTTAGC | -0.0337
130 | ACCATTCG | -0.0341
131 | CGTAAGTC | 0.0103
132 | ATTGCAAA | 0.16
133 | GCACACCC | -0.171
134 | CTACGCCA | -0.204
135 | CCGAAGTC | -0.167
136 | TGCATCCA | -0.0802
137 | TCAGGGCA | -0.0132
138 | ACTACGCT | 0.0474
139 | AAACCCCT | -0.209
140 | ATTAGAAC | 0.135
141 | ACATGAGA | 0.0687
142 | AGCACGCA | -0.193
143 | TCTGTTAA | 0.148
144 | ATGGGCGC | -0.0923
145 | GGTAAGCA | -0.0662
146 | ACGGGTTG | -0.109
147 | GACGGTCC | -0.273
148 | ACAAGTTG | 0.0642
149 | GATGTTCA | 0.0298
150 | CCTGCGTC | -0.279

Row | Sequence | PBM 8-mer E-score
151 | AACAAACA | 0.27
152 | AAATTTAG | 0.238
153 | GCCAACGA | -0.161
154 | CCGGAGCG | -0.209
155 | CAACGGGC | -0.176
156 | ACGACGAG | -0.0778
157 | AAGCTATT | 0.22
158 | CTGTTATA | 0.359
159 | AAACGGAG | -0.109
160 | CAACTTAG | 0.255
161 | GATTGTAA | 0.109
162 | AGACGCGG | -0.254
163 | GGGAATGA | -0.115
164 | GAGGTGCC | -0.179
165 | GCCACTTA | -0.161
166 | TACGACTA | -0.049
167 | ATCTATTG | 0.082
168 | CAGCATAC | 0.0181
169 | CCCCACTA | -0.172
170 | CAGAGCTC | -0.193
171 | GCGCGACA | -0.0568
172 | GCACCAAC | -0.0941
173 | ACGGGCTC | -0.154
174 | AGGCACAA | -0.212
175 | AGAGATCT | 0.0324

Row | Sequence | PBM 8-mer E-score
176 | GAACCGTC | -0.23
177 | GAGTTACC | -0.00681
178 | ACGGTTCA | 0.00356
179 | CAAATTGA | 0.223
180 | AAGCCTCT | -0.328
181 | AAGGTGAG | -0.254
182 | AAGCTGCA | -0.124
183 | TACGAACA | 0.145
184 | CGGAAGAA | -0.101
185 | CTACTGCC | -0.181
186 | GCCCTTGA | -0.286
187 | CAACCTCA | -0.114
188 | ACGCTAGT | -0.0816
189 | CGGTGGCC | -0.181
190 | AAAAACTG | 0.0497
191 | CGGCAGGA | -0.277
192 | GAGGCTAA | -0.0265
193 | CCCGCAAC | -0.00928
194 | TAGATGAA | 0.187
195 | ATCGAACG | -0.051
196 | AAATATGA | 0.241
197 | ATGACGCC | -0.301
198 | ACCTACCT | -0.162
199 | GGTGTCGA | -0.173
200 | CTGAGGAC | -0.192

Row | Sequence | PBM 8-mer E-score
201 | ACATCTGC | -0.0866
202 | GATCGTCC | -0.303
203 | ACTACGTC | -0.181
204 | CTTGCCCC | -0.16
205 | ATATCTTC | 0.283
206 | GAATGGGA | -0.195
207 | CATAATCC | 0.0563
208 | AGAACAGG | -0.0799
209 | TTGTTAAA | 0.346
210 | GCGCAGTA | -0.0668
211 | AAGCACCC | -0.193
212 | CACGGTTC | -0.16
213 | CCGAATTA | 0.191
214 | GAGTGTAA | 0.232
215 | AGGGAACC | -0.296
216 | CGATCCTA | -0.185
217 | GAGCTCGC | -0.24
218 | ACAACGCG | -0.0832
219 | AAGGCGGC | -0.157

From the supplement of paper PMC4466236
